Where a name gives a salt, the structure may show the parent alone. ± gives the standard deviation of the averaged measurements. In all, about 1,300 compounds were measured (“normalised cell viability”: median about 1, lowest 2% from about 0.15 on). This is one part of the list.
Tested on: V-C8 + BRCA2 (BRCA2-proficient hamster cells)
Experiment: normalised cell viability (fraction of plate median); higher = more viable cells (less toxic)
Conditions: 5 µM
In short: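 Hamster V-C8 cells lacking BRCA2 and V-C8 cells with BRCA2 restored were seeded in 96-well plates. Library drugs (10 mM DMSO stocks) were added 24 h later at 5 μM in 100 μl medium, next to DMSO control wells, for 3 days (screen 1) or 6 days (screen 2). Cell viability was read by resazurin assay, median-plate normalised (modified robust per cent of sample), and triplicate wells were averaged.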

SMILES	normalised cell viability (treatment time: 3 days)	normalised cell viability (treatment time: 6 days)
CC[N+](C)(C)c1cccc(O)c1 [Edrophonium chloride]	0.863 ± 0.029	0.972 ± 0.018
CN1CCC(=C2c3ccccc3C=Cc3ccccc32)CC1 [Cyproheptadine hydrochloride]	0.94 ± 0.067	0.959 ± 0.08
CO[C@H]1/C=C/O[C@@]2(C)Oc3c(C)c(O)c4c(O)c(c(/C=N/N5CCN(C6CCCC6)CC5)c(O)c4c3C2=O)NC(=O)/C(C)=C\C=C\[C@H](C)[C@H](O)[C@@H](C)[C@@H](O)[C@@H](C)[C@H](OC(C)=O)[C@@H]1C [Rifapentine]	0.985 ± 0.021	0.954 ± 0.072
CC(C)(C)NC[C@@H](O)COc1cccc2c1CCCC2=O [(+) -Levobunolol hydrochloride]	1.016 ± 0.0063	1.01 ± 0.039
N=C(N)NC(=N)NCCc1ccccc1 [Phenformin hydrochloride]	1.01 ± 0.029	0.9752 ± 0.0082
C[C@H]1O[C@H](O[C@H]2[C@H](O)[C@@H](O)[C@@H](O[C@H]3[C@H](O)[C@@H](O)C(O)O[C@@H]3CO)O[C@@H]2CO)[C@H](O)[C@@H](O)[C@@H]1N[C@H]1C=C(CO)[C@@H](O)[C@H](O)[C@H]1O (stereo partly drawn) [Acarbose]	0.928 ± 0.072	1.03 ± 0.056
NNCCc1ccccc1 [Phenelzine sulfate]	1.01 ± 0.04	0.959 ± 0.058
CC(=O)S[C@@H]1CC2=CC(=O)CC[C@]2(C)[C@H]2CC[C@@]3(C)[C@@H](CC[C@@]34CCC(=O)O4)[C@H]12 [Spironolactone]	1.12 ± 0.041	1.01 ± 0.077
CCCc1cc(C(N)=S)ccn1 [Prothionamide]	0.993 ± 0.021	1.03 ± 0.046
CC(Cc1cccc(C(F)(F)F)c1)NCCOC(=O)c1ccccc1 (stereo not drawn) [Benfluorex hydrochloride]	1.18 ± 0.023	1.05 ± 0.064
OCC(O)CN1CCN(c2ccccc2)CC1 (racemic) [Dropropizine (R,S)]	1.07 ± 0.041	0.9583 ± 0.0092
CNc1ncnc2c1ncn2[C@@H]1O[C@H](CO)[C@@H](O)[C@H]1O [N6-methyladenosine]	1.13 ± 0.12	1 ± 0.012
CC(C)(C)C(=O)OCOC(=O)[C@@H]1N2C(=O)[C@@H](/N=C/N3CCCCCC3)[C@H]2SC1(C)C [Pivmecillinam hydrochloride]	0.993 ± 0.063	1.05 ± 0.065
C[C@@H](O)[C@H]1C(=O)N2C(C(=O)O)=C(SCCNC=N)C[C@H]12 [Imipenem]	1.005 ± 0.0084	1.01 ± 0.062
c1ccc2c(c1)CCCC2C1=NCCN1 (stereo not drawn) [Tetrahydrozoline hydrochloride]	0.982 ± 0.046	1.03 ± 0.084
O=C1NCCN1c1ncc([N+](=O)[O-])s1 [Niridazole]	1.01 ± 0.016	1.04 ± 0.048
C1N2CN3CN1CN(C2)C3 [Methenamine]	1.01 ± 0.067	0.95 ± 0.032

SMILES	normalised cell viability (treatment time: 3 days)	normalised cell viability (treatment time: 6 days)
CCCCCN(C)CCC(O)(P(=O)(O)O)P(=O)(O)O [Ibandronate sodium]	0.796 ± 0.035	0.181 ± 0.0055
Nc1ccc(S(=O)(=O)NC(=O)c2ccccc2)cc1 [Sulfabenzamide]	0.913 ± 0.014	1.03 ± 0.015
C=C(CC)C(=O)c1ccc(OCC(=O)O)c(Cl)c1Cl [Ethacrynic acid]	1.07 ± 0.015	1.03 ± 0.067
CCN(CC)CCCC(C)Nc1ccnc2cc(Cl)ccc12 (stereo not drawn) [Chloroquine diphosphate]	0.852 ± 0.023	0.938 ± 0.082
CS(=O)(=O)c1ccc([C@@H](O)[C@@H](CF)NC(=O)C(Cl)Cl)cc1 [Florfenicol]	0.806 ± 0.048	0.905 ± 0.14
Oc1ccc(C2CNCCc3c2cc(O)c(O)c3Cl)cc1 (stereo not drawn) [Fenoldopam]	0.972 ± 0.04	1 ± 0.06
CC(C(=O)O)c1cccc(Oc2ccccc2)c1 (stereo not drawn) [Fenoprofen calcium salt dihydrate]	1.02 ± 0.034	0.997 ± 0.086
CCCc1ncc(C[n+]2ccccc2C)c(N)n1 [Amprolium hydrochloride]	0.925 ± 0.068	1.1 ± 0.23
CCn1cc(C(=O)O)c(=O)c2cc(F)c(N3CCNCC3)nc21 [Enoxacin]	0.995 ± 0.058	1.033 ± 0.01
CC(=O)OCC(=O)NCCCOc1cccc(CN2CCCCC2)c1 [Roxatidine Acetate HCl]	0.429 ± 0.011	0.467 ± 0.018
OCCN1CCN(CCCN2c3ccccc3Sc3ccc(C(F)(F)F)cc32)CC1 [Fluphenazine dihydrochloride]	0.825 ± 0.062	0.662 ± 0.096
CC(C)(Oc1ccc(CCNC(=O)c2ccc(Cl)cc2)cc1)C(=O)O [Bezafibrate]	1.003 ± 0.0026	1.01 ± 0.07
c1ccc(CC2=NCCN2)cc1 [Tolazoline hydrochloride]	0.982 ± 0.014	0.957 ± 0.063
Clc1ccc2c(c1)C(N1CCNCC1)=Nc1ccccc1O2 [Amoxapine]	0.827 ± 0.043	0.786 ± 0.087
O=C1c2ccccc2C(=O)C1c1ccccc1 [Phenindione]	1 ± 0.026	1.05 ± 0.037
O=C(O)CCc1nc(-c2ccccc2)c(-c2ccccc2)o1 [Oxaprozin]	1.06 ± 0.11	1.12 ± 0.078
CC[C@H]1OC(=O)[C@H](C)[C@@H](O[C@H]2C[C@@](C)(OC)[C@@H](O)[C@H](C)O2)[C@H](C)[C@@H](O[C@@H]2O[C@H](C)C[C@H](N(C)C)[C@H]2O)[C@](C)(O)C[C@@H](C)C(=O)[C@H](C)[C@@H](O)[C@]1(C)O [Erythromycin]	0.912 ± 0.017	0.985 ± 0.051

— the supplement of paper PMC6609913
